The supplement of paper PMC3334620
The full ranking holds about 33,000 sequences; the median of “E-score (-0.5 to 0.5)” is about -0.035, and the highest 2% start at about 0.35. Some of the results follow.

Each sequence was assayed against T1, Pdr3 (UniProt P33200) (assay: PBM E-score (8-mer binding enrichment) (E-score (-0.5 to 0.5)); higher = stronger / more preferred TF binding; most listed sequences are background and not binding sites). Details: protein concentration: 200 nM; construct: GST-full length.
T1 sequence: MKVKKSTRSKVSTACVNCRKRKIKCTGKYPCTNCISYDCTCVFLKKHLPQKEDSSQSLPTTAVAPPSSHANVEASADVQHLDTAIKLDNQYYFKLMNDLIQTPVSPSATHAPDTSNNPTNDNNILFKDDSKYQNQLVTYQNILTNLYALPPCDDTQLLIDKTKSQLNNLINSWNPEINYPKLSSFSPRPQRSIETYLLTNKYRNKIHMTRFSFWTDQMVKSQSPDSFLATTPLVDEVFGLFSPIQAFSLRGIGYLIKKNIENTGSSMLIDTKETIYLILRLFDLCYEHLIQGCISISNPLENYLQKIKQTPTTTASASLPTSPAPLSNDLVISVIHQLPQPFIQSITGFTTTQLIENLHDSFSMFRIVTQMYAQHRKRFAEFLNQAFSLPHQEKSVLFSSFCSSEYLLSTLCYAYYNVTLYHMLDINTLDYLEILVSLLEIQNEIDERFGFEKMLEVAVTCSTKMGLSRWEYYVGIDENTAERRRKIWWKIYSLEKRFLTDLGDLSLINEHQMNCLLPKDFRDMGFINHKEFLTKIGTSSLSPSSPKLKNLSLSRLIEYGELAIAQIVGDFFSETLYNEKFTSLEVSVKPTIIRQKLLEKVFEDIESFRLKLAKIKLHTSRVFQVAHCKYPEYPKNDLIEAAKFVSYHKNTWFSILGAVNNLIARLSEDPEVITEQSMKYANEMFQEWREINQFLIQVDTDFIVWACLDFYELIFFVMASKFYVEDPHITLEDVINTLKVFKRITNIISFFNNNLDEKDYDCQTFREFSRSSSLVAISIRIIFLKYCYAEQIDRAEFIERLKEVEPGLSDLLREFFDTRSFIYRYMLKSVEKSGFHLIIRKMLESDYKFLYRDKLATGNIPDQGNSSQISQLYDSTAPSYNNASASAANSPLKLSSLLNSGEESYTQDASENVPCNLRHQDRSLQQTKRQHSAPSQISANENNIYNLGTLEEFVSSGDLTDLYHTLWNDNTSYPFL
Method in brief: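 Universal all-10-mer Agilent arrays, double-stranded by primer extension on fresh or once-stripped slides, were probed with about 100-200 nM GST-tagged yeast transcription factors made by PURExpress. Fluorescent anti-GST detected bound protein, and masliner normalised the scans. E-scores from the Universal PBM Analysis Suite were given to each ungapped eight-base word pooled with its reverse complement.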
In the case of CACAAAAC, the “PBM E-score” value is reported as 0.0928.
For CCCCATCC, the “PBM E-score” value was 0.144.
In the case of CCTACATC, the “PBM E-score” value is reported as 0.086.
GCTCATCA was tested, and the “PBM E-score” value was -0.0721.
In the case of ACAGACAC, the “PBM E-score” value is reported as -0.0661.
For CGTGCTTA, the “PBM E-score” value was 0.0586.
For ACTATTCT, the “PBM E-score” value was -0.045.
With GCCATCCC the “PBM E-score” value was 0.147.
CTCGCGTC was tested, and the “PBM E-score” value was 0.083.
CAATATAC was tested, and the “PBM E-score” value was -0.00737.
AGTTGACA was tested, and the “PBM E-score” value was -0.022.
In the case of CCGGCGTC, the “PBM E-score” value is reported as 0.273.
In the case of ACCGCATA, the “PBM E-score” value is reported as 0.0305.
With ACACCGAT the “PBM E-score” value was -0.179.
For TGAGCAAA, the “PBM E-score” value was -0.0992.
AGAACGCA was tested, and the “PBM E-score” value was -0.0199.
For TCGATCAA, the “PBM E-score” value was -0.0862.
For CCAAGGAC, the “PBM E-score” value was -0.202.
In the case of CAAGCTGC, the “PBM E-score” value is reported as -0.0639.
In the case of CAATAACA, the “PBM E-score” value is reported as -0.0386.
For AGTGCTAC, the “PBM E-score” value was -0.316.
AGAATTGC was tested, and the “PBM E-score” value was 0.0115.
For CTTCGAAG, the “PBM E-score” value was -0.0703.
GATCGTGC was tested, and the “PBM E-score” value was 0.0812.
For GAAAAGCA, the “PBM E-score” value was -0.112.
With CACCAGAC the “PBM E-score” value was -0.0166.
In the case of AACGGTAG, the “PBM E-score” value is reported as 0.0653.
GCACTGGC was tested, and the “PBM E-score” value was -0.121.
For ATGCTTAC, the “PBM E-score” value was -0.358.
With CAAATTTA the “PBM E-score” value was 0.0732.
CATGCGAC was tested, and the “PBM E-score” value was -0.0928.
For ACTCGTCC, the “PBM E-score” value was 0.0462.
In the case of GAGCACAA, the “PBM E-score” value is reported as 0.0998.
With CCGCCGCC the “PBM E-score” value was 0.244.
With GCAAGCAA the “PBM E-score” value was -0.015.
For AATTGGAG, the “PBM E-score” value was -0.07.
With ATCCTCAG the “PBM E-score” value was 0.0362.
CGCCTCGA was tested, and the “PBM E-score” value was -0.00383.
AACAAAGC was tested, and the “PBM E-score” value was 0.0302.
ATCTTGTG was tested, and the “PBM E-score” value was -0.202.
AAGGAAGT was tested, and the “PBM E-score” value was 0.0783.
In the case of CATAACCG, the “PBM E-score” value is reported as 0.135.
In the case of CCCCGGCC, the “PBM E-score” value is reported as 0.0967.
In the case of CCACCGCA, the “PBM E-score” value is reported as 0.00962.
For TACATTCA, the “PBM E-score” value was -0.161.
In the case of TACAGACA, the “PBM E-score” value is reported as -0.0889.
With CCTTCCGA the “PBM E-score” value was 0.323.
With GGTTTTAC the “PBM E-score” value was -0.217.
For TGACGACA, the “PBM E-score” value was -0.0763.
CCCGCGCA was tested, and the “PBM E-score” value was 0.288.
For ACGCAAAA, the “PBM E-score” value was 0.0276.
CCCCTACA was tested, and the “PBM E-score” value was -0.222.
For AGTTTCAT, the “PBM E-score” value was 0.101.
GCAGCATA was tested, and the “PBM E-score” value was -0.124.
AGTGTCAT was tested, and the “PBM E-score” value was -0.037.
In the case of AAGATAAA, the “PBM E-score” value is reported as 0.012.
In the case of GCTTCACC, the “PBM E-score” value is reported as -0.103.
In the case of CTCATCAG, the “PBM E-score” value is reported as 0.0537.
AGGACCGA was tested, and the “PBM E-score” value was -0.0353.
In the case of CAGCGTGA, the “PBM E-score” value is reported as -0.113.
AGGATTTA was tested, and the “PBM E-score” value was -0.0298.
ATGTTTAG was tested, and the “PBM E-score” value was -0.0411.
With TCTCCCAA the “PBM E-score” value was -0.199.
AAGCGGTA was tested, and the “PBM E-score” value was -0.0936.
In the case of ACGCGAGG, the “PBM E-score” value is reported as -0.0432.
For CCTCTATC, the “PBM E-score” value was -0.0908.
With AGGTTTGC the “PBM E-score” value was -0.129.
In the case of ACTATGGC, the “PBM E-score” value is reported as -0.107.
For GGTGCGCA, the “PBM E-score” value was 0.191.
In the case of ACAGATGT, the “PBM E-score” value is reported as -0.0767.
With GCGCGCGA the “PBM E-score” value was 0.308.
With ACTTGGAG the “PBM E-score” value was -0.0985.
With AGTCGACT the “PBM E-score” value was 0.0493.
For GACGAAAC, the “PBM E-score” value was -0.165.
For ACATTCCC, the “PBM E-score” value was 0.154.
In the case of AGTGTGGA, the “PBM E-score” value is reported as -0.0572.
In the case of ATTCGACG, the “PBM E-score” value is reported as 0.0473.
With ATACCCAC the “PBM E-score” value was 0.0633.
With TATTCAAA the “PBM E-score” value was 0.00324.
For AATGGTGC, the “PBM E-score” value was 0.0972.
For AGGGGGGA, the “PBM E-score” value was -0.201.
For ATTCTTCA, the “PBM E-score” value was -0.101.
With CACTGGGA the “PBM E-score” value was -0.181.
For TAGTTCCA, the “PBM E-score” value was 0.0392.
With AATATCTG the “PBM E-score” value was 0.0304.
CTGATGTC was tested, and the “PBM E-score” value was 0.169.
